# Hit rate of the full screen: of about 110,000 compounds, about 230 (0.21%) showed an effect of 50% or more. This is one part of the list.
# Molecular target: DPAP1 (Plasmodium falciparum, UniProt Q8IIJ9)
# Assay: primary screen, percent inhibition; read by cleavage of a fluorogenic dipeptide substrate; higher = more effect of the substance
# Set-up: species or system P. falciparum D10 trophozoite lysates; single well
# 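Further: 30 min substrate incubation versus DMSO and 10 µM JCP410 controls.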
# DPAP1, sequence (Q8IIJ9 whole entry, looked up): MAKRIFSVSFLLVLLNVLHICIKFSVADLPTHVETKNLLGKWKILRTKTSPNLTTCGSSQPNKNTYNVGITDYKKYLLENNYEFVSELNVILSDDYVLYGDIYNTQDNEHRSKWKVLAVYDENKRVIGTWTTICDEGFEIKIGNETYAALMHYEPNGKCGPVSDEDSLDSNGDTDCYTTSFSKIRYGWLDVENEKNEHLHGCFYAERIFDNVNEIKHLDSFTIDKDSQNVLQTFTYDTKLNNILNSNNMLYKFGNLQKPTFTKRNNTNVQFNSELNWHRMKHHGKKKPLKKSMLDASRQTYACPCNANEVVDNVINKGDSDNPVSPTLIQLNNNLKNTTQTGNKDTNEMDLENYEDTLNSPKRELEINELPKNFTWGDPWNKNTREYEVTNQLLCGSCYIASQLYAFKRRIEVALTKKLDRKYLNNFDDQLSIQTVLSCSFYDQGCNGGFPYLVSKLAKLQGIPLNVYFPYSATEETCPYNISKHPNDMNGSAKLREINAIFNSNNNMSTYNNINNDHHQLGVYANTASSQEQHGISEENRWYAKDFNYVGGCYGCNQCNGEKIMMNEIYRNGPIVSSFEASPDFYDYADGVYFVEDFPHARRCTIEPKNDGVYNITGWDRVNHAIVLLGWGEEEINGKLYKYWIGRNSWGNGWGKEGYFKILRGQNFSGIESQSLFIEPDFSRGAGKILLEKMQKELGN
row,Structure (SMILES),% Inhibition @ 10 uM [%]
1,O=S(=O)(c1ccc(C2CCCCC2)cc1)N(CCCN1CCOCC1)Cc1cccs1,-1.34
2,CCN1CCCC1CNC(=O)C1CCN(c2nnc(C)c3c(C)n(-c4ccccc4)nc23)CC1 (stereo not drawn),-5.35
3,CC(C)(C)c1ccc(C(=O)NCCCN2CCOCC2)cc1,7
4,CC1CC(C)CN(C(=O)C(NS(=O)(=O)c2ccc(Br)s2)c2ccccc2)C1 (stereo not drawn),-3.87
5,Cc1sc2ncnc(Nc3ccncc3)c2c1C,-0.711
6,CC1CCCCN1CCCNC(=O)C1CCN(c2nc3ccccc3o2)CC1 (stereo not drawn),-3.12
7,O=C(Cn1ncc2c3ccccc3n(Cc3ccccc3)c2c1=O)N1CCN(C(=O)c2ccco2)CC1,3.4
8,Cc1ccc(Cn2cnc3c(nnn3-c3ccc(C)cc3)c2=O)cc1,-5.79
9,CCOc1ccc(C2C3=C(CC(C)(C)CC3=O)N(CCCOC)C3=C2C(=O)CC(C)(C)C3)cc1OC,-1.71
10,CC(NC(=O)CN(c1cccc(F)c1)S(C)(=O)=O)c1ccccc1 (stereo not drawn),-4.39
11,CCC(C)NS(=O)(=O)c1cc(C(=O)OC)n(C)c1 (stereo not drawn),0.655
12,CC1CCCN(CCCNC(=O)C2c3ccccc3C(=O)N(C)C2c2cccs2)C1 (stereo not drawn),-10
13,COc1ccc(C2CC(C(F)(F)F)n3ncc(C(=O)NCCc4ccccc4)c3N2)cc1 (stereo not drawn),4.19
14,CSc1ncc(C(=O)NCCCN2CCc3ccccc3C2)c(-c2ccccc2)n1,-0.401
15,Cc1cccc(Nc2nc(-c3ccncc3)cs2)n1,4.96
16,COc1ccc(C(=O)Nc2nc3nc4c(c(O)n3n2)CCC4)cc1,-1.31
17,CCN(CC)S(=O)(=O)c1cc(C(=O)NC2CCCCC2)ccc1Br,-4.58
18,O=C1NC(/C=C/c2ccccc2)=C(c2ccccc2)C(c2ccccc2)N1 (stereo not drawn),15.1
19,COc1ccc(OC)c(C2C3=C(O)CCCC3=NC(C)=C2C(=O)Nc2ccccc2C)c1 (stereo not drawn),-8.35
20,CCCNC(=O)C1=C(C)C(=O)OC12CCN(Cc1ccccc1)CC2,-0.234
21,COc1ccc2noc3c2c1C(=O)c1ccccc1-3,-5.59
22,COc1ccc(-c2cc(OC(=O)c3ccco3)c3c(C)oc(C)c3c(=O)c2)cc1OC,2.21
23,Cc1ccc2oc(=O)n(CCOc3ccc(Cl)cc3)c2c1,0.983
24,CCN(CC)c1ccc(C2C3=C(O)CC(C)(C)CC3=NC(C)=C2C(=O)OC)cc1 (stereo not drawn),-0.13

row,Structure (SMILES),% Inhibition @ 10 uM [%]
1,CC1CCCC(C)N1CCCNC(=O)NCc1noc2ccccc12 (stereo not drawn),-7.1
2,Cc1cc(C)c(S(=O)(=O)N2CCN(Cc3ccc4c(c3)OCO4)CC2)c(C)c1,-1.81
3,O=C(O)c1c(CNCCc2ccccc2)c2ccccc2n1Cc1cccc(Cl)c1,3.54
4,COc1ccc(Cl)cc1-n1c(S)nnc1Cn1ncc2ccccc2c1=O,0.627
5,C=CCOC(=O)CCC(=O)Nc1cccc2ccccc12,-1.77
6,O=C(Nc1c(-c2ccccc2)nc2ccccn12)c1cccs1,-3.75
7,O=C(O)c1ccccc1C(=O)NCCc1ccncc1,-0.0735
8,CCN1/C(=C/C(C)=O)Sc2ccccc21,-3.81
9,N#CC1=C(N)NC(SCc2ccccc2)=C(C#N)C12CCCCC2,-2.47
10,CCOC(=O)c1cnc2nc(-c3ccco3)nn2c1O,-0.671
11,COc1ccc(/C(C)=C2\SC(N3CCOCC3)=NC2=O)cc1,-3.41
12,CCc1ccc(-c2[nH]nc3nc(-c4ccc(O)cc4)cc(C(=O)O)c23)cc1,-2.07
13,CC(C)C[C@H](NC(=O)c1coc(-c2ccccc2)n1)C(=O)NCC#N,3.1
14,COc1ccc2c(c1)c(C(=O)O)c(C)n2C,4.57
15,CCOC(=O)N1CCC(NC(=O)C2c3ccccc3C(=O)N(C)C2c2cn(C)c3ccccc23)CC1 (stereo not drawn),-3.87
16,Cc1ccc(S(=O)(=O)CCc2nc3ccccc3o2)cc1,1.26
17,Cc1ccc(S(=O)(=O)c2nnn3c2nc(NC2CCCCCC2)c2sccc23)cc1,1.68
18,Cc1cccc(CS(=O)(=O)Cc2ccc(C(=O)NCCC3=CCCCC3)o2)c1,0.718
19,COc1ccc(CNC(=O)C(Cc2ccccc2)NS(=O)(=O)c2cccc3nsnc23)cc1 (stereo not drawn),2
20,COc1ccc(-c2csc3ncn(CC(=O)N4CCOCC4)c(=O)c23)cc1,8.62
21,COc1ccc(-c2nc(SCC(=O)NC3CCCC3)c(-c3ccccc3)[nH]2)cc1,0.163
22,CCCCCCN1C(=O)C(O)=C(C(C)=O)C1c1cccc(F)c1 (stereo not drawn),3.05
23,CC(NC(=O)c1cccc(S(=O)(=O)N2CCOCC2)c1)C12CC3CC(CC(C3)C1)C2 (stereo not drawn),0.661
24,CN1C(C(=O)NC(C)(C)CO)=CC(c2ccco2)=NS1(=O)=O,2.32

row,Structure (SMILES),% Inhibition @ 10 uM [%]
1,Cc1ccc(OCC(=O)n2nc(C)c(Sc3ccccc3)c2C)cc1,-0.169
2,COc1cc(OC)c(OC)cc1/C=c1\sc2nnc(-c3ccc(Cl)cc3)n2c1=O,-0.0735
3,CC1CCc2c(sc3nnn(CC(=O)NC4CCCCC4)c(=O)c23)C1 (stereo not drawn),-1.18
4,C=CC/N=C1\S/C(=C/N(C)C)C(=O)N1S(=O)(=O)c1ccc(C)cc1,-2.12
5,O=C(/C=C/c1ccco1)NC(=S)Nc1ccc(S(=O)(=O)Nc2nccs2)cc1,-1.42
6,CCOc1ccccc1N(CC(=O)NCc1cccnc1)S(C)(=O)=O,0.528
7,COc1ccc(S(=O)(=O)Nc2cccnc2)cc1,-1.03
8,FC(F)(F)c1cccc(CN2CCN(C/C=C/c3ccccc3)CC2)c1,-0.969
9,Cc1cc(C)cc(Oc2c(C(F)(F)F)oc3c(CN4CCOCC4)c(O)ccc3c2=O)c1,-6.94
10,CCc1nnc(NC(=O)CSc2nc3c(c(=O)n(C)c(=O)n3C)n2Cc2ccccc2F)s1,-0.92
11,O=C(NC1CCCc2ccccc21)C1CCC(CNS(=O)(=O)c2cccs2)CC1 (stereo not drawn),-7.98
12,Cc1ccc(Cn2ccc(NC(=O)C3=CC(c4cccs4)=NS(=O)(=O)N3C)n2)cc1,6.98
13,CCOc1ccc2nc(N3CCC(C(=O)N4CCN(C5CCCCC5)CC4)CC3)sc2c1,1.8
14,COC(=O)c1c(NC(=O)NCc2ccccc2)sc2c1CCCC2,13.4
15,Cc1cccc(NC(c2ccccn2)c2ccc3ccc(C)nc3c2O)n1 (stereo not drawn),2.43
16,CN1CCC(N(C)Cc2ccsc2)CC1,3.1
17,Cc1cc(C)c2c(C)nn(C(C)C)c2n1,0.968
18,O=C1/C(=C/c2cc(Br)cc([N+](=O)[O-])c2O)Sc2ccccc21,2.54
19,CCOC(=O)C1=C(C)N=c2s/c(=C\c3ccccc3OCC)c(=O)n2C1c1ccc(F)cc1 (stereo not drawn),8.36
20,Cc1ccc(-c2n[nH]c3c2C(c2ccc(N(C)C)cc2)C(C#N)=C(N)O3)cc1 (stereo not drawn),0.777
21,O=C(CCCNS(=O)(=O)c1cccc2nsnc12)NCc1ccc(Cl)cc1,-3.23
22,COc1ccccc1/C=C(\C#N)c1nc(-c2ccc(Cl)cc2)cs1,-0.693
23,Nc1c(C(=O)Nc2cccc(C(=O)O)c2)sc2nc3c(cc12)CCCCC3,9
24,CCC(C)NC(=O)Cc1c(C)nc2c(-c3ccc(F)cc3)c(C)nn2c1C (stereo not drawn),-0.72

row,Structure (SMILES),% Inhibition @ 10 uM [%]
1,CC(=O)Nc1ccc(CN(CCN(C)C)Cc2ccccc2)cc1,2.7
2,COC(=O)c1cccc(N2CCCC2=O)c1,6.56
3,CSc1ccc(C2C(C#N)=C(N)Oc3c2c(=O)oc2ccccc32)cc1 (stereo not drawn),4.66
4,CCC1CCCCN1S(=O)(=O)c1ccc(NC(=O)COc2ccc(OC)cc2)cc1 (stereo not drawn),-4.52
5,CCOC(=O)N1CCN(C(=O)CSc2ccccc2)CC1,2.09
6,Cc1noc(C)c1S(=O)(=O)N1CCC2(CC1)OCCO2,-3.57
7,CCOC(=O)C1=C(C)N=c2s/c(=C/c3ccc(Cl)cc3)c(=O)n2C1c1ccccc1 (stereo not drawn),-2.91
8,CCN(CC)CCNC(=O)CCCc1nnc2n3nc(-c4ccccc4)nc3c3ccccc3n12,-4.69
9,N#Cc1nc(-c2ccccc2)oc1NCCN1CCCCC1,-6.86
10,CCOCCCNC(=O)c1oc2c(c1C)-c1nn(Cc3ccccc3Cl)cc1CC2,9.79
11,CC1CN(c2nc3c(=O)n(C)c(=O)n(C)c3[nH]2)CC(C)O1 (stereo not drawn),3.51
12,Cc1ccc(-n2nc(C)c3c(C(=O)NCC4CCN(CCc5cccs5)CC4)cc(C)nc32)cc1,-3.1
13,O=C(c1cc(-c2cccnc2)on1)N1CCN(Cc2ccccc2)CC1,-7.15
14,CCC(Oc1ccccc1)C(=O)Nc1nc(C)c(C(=O)N(C)C)s1 (stereo not drawn),-1.52
15,CCCCOc1ccc(-c2nc(/C=N/c3cc(C)on3)c(O)o2)cc1,2.11
16,CCOC(=O)c1[nH]c(C)c(C(=O)N2CCN(Cc3ccccc3)CC2)c1C,1.72
17,Clc1cccc(/C=C/c2nn3c(-c4ccncc4)nnc3s2)c1,2.05
18,CCC(Sc1nc2cccnc2[nH]1)C(=O)NC1CCCC1 (stereo not drawn),0.434
19,Cc1ccc(-c2cn3c(n2)sc2cc(C(=O)N4CCN(C(=O)c5ccco5)CC4)ccc23)cc1,21.9
20,COc1ccc(-c2nc3c(c(SC(F)F)n2)Cc2c(CO)cnc(C)c2O3)cc1,1.95
21,O=[N+]([O-])c1cc(CN2CCC(O)CC2)ccc1Cl,1.55
22,CCC(C)NC(=O)C1CCN(S(=O)(=O)c2ccc(C)cc2)CC1 (stereo not drawn),0.387
23,O=C(Nc1cc(Cl)ccc1Cl)c1ccc(F)cc1,-3.82
24,O=C1OC(c2ccco2)=N/C1=C\c1cccc(C(F)(F)F)c1,3.31

# From article PMC6919601, “Identification of Plasmodium dipeptidyl aminopeptidase allosteric inhibitors by high throughput screening” (PLoS ONE, 2019)
